The other results are listed elsewhere or left out.
Molecular target: T1, OsWOX13 (Oryza sativa, UniProt Q5QMM3 1-267)
T1 sequence: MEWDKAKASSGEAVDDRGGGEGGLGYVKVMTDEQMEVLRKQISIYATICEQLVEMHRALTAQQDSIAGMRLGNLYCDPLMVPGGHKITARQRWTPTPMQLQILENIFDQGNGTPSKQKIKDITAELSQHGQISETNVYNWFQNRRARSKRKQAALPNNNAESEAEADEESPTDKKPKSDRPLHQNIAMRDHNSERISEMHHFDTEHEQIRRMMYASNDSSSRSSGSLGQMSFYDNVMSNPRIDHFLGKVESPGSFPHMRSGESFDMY
Assay: protein-binding microarray (RPBM); PBS, 2% BSA, 51.3 ng/ul salmon testes DNA, 50 uM zinc acetate, 200 nM TF, 25 C, 1 h; high values mean tight binding
Settings: protein: recombinant; tags: N-terminal polyhistidine and DsRed monomer fusion (pET32a); label: CyDye5-dUTP incorporated in the synthesized complementary strand; 3' TTTTT single-stranded linker to array surface; dsDNA, one strand shown
Procedure, shortened: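 A custom Agilent array was converted to double-stranded form by primer extension with Cy5-dUTP and blocked with 2% BSA. Protein at 200 nM in PBS with 2% BSA, salmon testes DNA and 50 µM zinc acetate was applied for 1 h at 25 °C, followed by washing. The proteins were polyhistidine–DsRed N-terminal fusions of transcription factors, expressed in E. coli BL21-CodonPlus and Ni–NTA-purified. The binding signal is per-feature fluorescence intensity (arbitrary units) from an Axon 4000B scanner.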

Sequence	binding signal
TGGTTGCAAATTGATTTGGTTATTTAGTATAAACATCCTCCGGAGTCACCTAGTGCAG	40100 fluorescence intensity (a.u.)
TTGGACAGAACTGGTGATTGTTCAAGCTTCAAATTTGAAACGGAGTCACCTAGTGCAG	7190 fluorescence intensity (a.u.)
ACTCCGAAATAATATTAAATTAGAAATCTAATGATCTAGACGGAGTCACCTAGTGCAG	3490 fluorescence intensity (a.u.)
GGTTGGGAATGGCTGGCGGTTAATTCAATTTGCTGCTGACCGGAGTCACCTAGTGCAG	3730 fluorescence intensity (a.u.)
TGCTAATAAATCTTGATTTGTTTCACATAGAAGCTGCATCCGGAGTCACCTAGTGCAG	26400 fluorescence intensity (a.u.)
GTGTTAGAGAAGTATTAATTGGCAAGAGTAAAACATGTTACGGAGTCACCTAGTGCAG	6520 fluorescence intensity (a.u.)
CAAAGGTTTTAATTAATCTCGTATTGGGTTCTTATATGGACGGAGTCACCTAGTGCAG	3700 fluorescence intensity (a.u.)
AGAAAATTTCCCAATTAATGGCATTGTTGGCTACTTATTACGGAGTCACCTAGTGCAG	18800 fluorescence intensity (a.u.)
TTGCAAATTGCAAACAGGCGATGGCTGATCTGATGCATCTCGGAGTCACCTAGTGCAG	10900 fluorescence intensity (a.u.)
TGACATTCGTAATTATACTCCAATATAATATTATCCATATCGGAGTCACCTAGTGCAG	4040 fluorescence intensity (a.u.)
CTTGAACTTGATTGTGCCCGTACAGGAACGGAACAGCAAGCGGAGTCACCTAGTGCAG	13300 fluorescence intensity (a.u.)
TAGTGACGGATAGATTACACACAATTAAAAGATGCCATTACGGAGTCACCTAGTGCAG	9930 fluorescence intensity (a.u.)
TTTAATTTGGCCTACTTAATTCTCGTCTACAAATTGAGCCCGGAGTCACCTAGTGCAG	12400 fluorescence intensity (a.u.)
CTAAACTTGGTTAAATTTCCATCAGGAAATCAAACTCTACCGGAGTCACCTAGTGCAG	11000 fluorescence intensity (a.u.)
CTCTAAATTTGTGCAGATGTGTCACCTAGATCCCTGAACTCGGAGTCACCTAGTGCAG	11700 fluorescence intensity (a.u.)
TGCTGACGTGACAGGACAACGCTGCCATAGCTAAAAGGTTCGGAGTCACCTAGTGCAG	5000 fluorescence intensity (a.u.)
GGAGGAGCTAATCAAATCAAGTCAAATCGAATCAAATCAACGGAGTCACCTAGTGCAG	4610 fluorescence intensity (a.u.)
GTGTATTACACGGAGGAAATTGACAGGTGTGGAAATTGAGCGGAGTCACCTAGTGCAG	14500 fluorescence intensity (a.u.)
TCTTGACGGGGAGTTACCATTGAATATATTTTGATAATATCGGAGTCACCTAGTGCAG	4170 fluorescence intensity (a.u.)
TTGTGATTGGTTAAGATAAATAAATTGTTGTAGATATTCTCGGAGTCACCTAGTGCAG	48800 fluorescence intensity (a.u.)
CATTCATATTGATATTAATGAGATAACCCGTTAATGAGATCGGAGTCACCTAGTGCAG	4620 fluorescence intensity (a.u.)

Sequence	binding signal
CCGCAATTAAACGCCATCTCGATCGAAAGCTAGACTAACCCGGAGTCACCTAGTGCAG	3250 fluorescence intensity (a.u.)
GATATTAACTTGATTAATTCTAGCTGATTAGCTAGCTTGGCGGAGTCACCTAGTGCAG	36900 fluorescence intensity (a.u.)
CACTTGACTGGCTGATGCTATTGGCCTCTGTTATATTTTCCGGAGTCACCTAGTGCAG	19900 fluorescence intensity (a.u.)
CATTATTTCACTTGATTAAATTGCTTTAACTTTTATTTAGCGGAGTCACCTAGTGCAG	15900 fluorescence intensity (a.u.)
CAAATCAAAATTTATAAACTTTCAAACTCAAAACATGCTACGGAGTCACCTAGTGCAG	5240 fluorescence intensity (a.u.)
TTATTAATTGTTCTACAATACGCCAATGGGCTGGGCTTTCCGGAGTCACCTAGTGCAG	9540 fluorescence intensity (a.u.)
CGCGGGATTGTGATTTCTATACCATCCCTGAATGGTACGACGGAGTCACCTAGTGCAG	6350 fluorescence intensity (a.u.)
TCTTATTGACATGGCACCATAGACACTGCTTATGGATACTCGGAGTCACCTAGTGCAG	11700 fluorescence intensity (a.u.)
ATGATAAATTAAGTAATACGAAAACAGAATCATCATATAGCGGAGTCACCTAGTGCAG	10200 fluorescence intensity (a.u.)
AAATTTAAAATTTAAACTTTGACTACGATTGATAAGCCAACGGAGTCACCTAGTGCAG	9150 fluorescence intensity (a.u.)
ATACAATTATTACAATCTATTAAAAGCACATTAACATAACCGGAGTCACCTAGTGCAG	10200 fluorescence intensity (a.u.)
TCCTATTGATTTTGTGCGATGGCTTGTAATAGGATGCCACCGGAGTCACCTAGTGCAG	9560 fluorescence intensity (a.u.)
CTACATTGCTAATCCAAATAATTAGCACTAATCACGAAATCGGAGTCACCTAGTGCAG	15900 fluorescence intensity (a.u.)
AGTACAGCAGAATTAATTGATGGGGCTTCTGTTTTGAGTTCGGAGTCACCTAGTGCAG	19100 fluorescence intensity (a.u.)
AGATTATCAATTATTGAATTAAAGGAAATTGTGTCCGGACCGGAGTCACCTAGTGCAG	21300 fluorescence intensity (a.u.)
GGATGGGTGAGGGGATCGGCGAAGGCGGCGGGGTGGCGAACGGAGTCACCTAGTGCAG	5130 fluorescence intensity (a.u.)
GCTAATTACTTTTCGACTGTACTTAAACATGTTGACCCTACGGAGTCACCTAGTGCAG	38100 fluorescence intensity (a.u.)
CTAATCAAGATTAGATATACCTAGAACAACAAATGCCAAACGGAGTCACCTAGTGCAG	4220 fluorescence intensity (a.u.)
GGTACACATATGTGATTACTTGCAAACGGAAATCCTCTAGCGGAGTCACCTAGTGCAG	4820 fluorescence intensity (a.u.)
AATAATAGATATTGCAGTTAAATAGTAAACGAAGCACACCCGGAGTCACCTAGTGCAG	8760 fluorescence intensity (a.u.)
AGAGGGAGATTGGATTTGCTTAATTTGTTACATATTCTGGCGGAGTCACCTAGTGCAG	30500 fluorescence intensity (a.u.)

From paper PMC7819943, “Rice protein-binding microarrays: a tool to detect cis-acting elements near promoter regions in rice”
